# Measured values reported in article PMC12820563, “FoxP3 forms a head-to-head dimer in vivo and stabilizes its multimerization on adjacent microsatellites”.
# Some of the results follow.
# Target: T1, MBP-FoxP1dN (Mus musculus, UniProt P58462 326-579)
# T1 sequence: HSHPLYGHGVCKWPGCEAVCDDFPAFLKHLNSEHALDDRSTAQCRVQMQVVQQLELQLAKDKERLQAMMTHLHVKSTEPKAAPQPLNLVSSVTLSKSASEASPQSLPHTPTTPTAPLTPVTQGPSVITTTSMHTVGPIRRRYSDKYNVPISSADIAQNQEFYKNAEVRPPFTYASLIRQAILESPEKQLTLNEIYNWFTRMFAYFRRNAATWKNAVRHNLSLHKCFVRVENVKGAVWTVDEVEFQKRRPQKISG
# Test: PD-seq (MBP pull-down with sequencing); 20 mM Tris-HCl pH 7.5, 100 mM NaCl, 1.5 mM MgCl2, 0.4 uM protein, 0.1 uM dsDNA library, 30 min, room temperature, amylose pull-down; high values mean tight binding
# Details: protein: recombinant; tags: His6-MBP; chain copies: 2; dsDNA, one strand shown
# How it was run: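 Binding is reads-per-million enrichment of pull-down over input, with replicates pooled. It comes from 30 min room-temperature incubation in Tris pH 7.5 buffer with NaCl and MgCl2 of 0.4 µM His6-MBP-tagged, N-terminally truncated mouse FoxP3 or FoxP1 fragment from E. coli with 0.1 µM Klenow-filled degenerate double-stranded DNA library, followed by amylose resin capture, three washes and Illumina sequencing of the released DNA.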
row,Sequence,binding signal
1,GATGATTGTTCTCCCAGCTGATGAATTCCTTAGATCGAGTAAACAAATTTTCCTAATCTTTCTGTTCAAGCGCCATCTAC,0.924 RPM ratio (pull-down/input)
2,GATGATTGTTCTCCCAGCTGATGAATTCCAGACATCGAGTAAACAAATTTTCCTAATCTTTCTGTTCAAGCGCCATCTAC,0.854 RPM ratio (pull-down/input)
3,GATGATTGTTCTCCCAGCTGATGAATTTGATTTATCGAGTAAACAAATTTTCCTAATCTTTCTGTTCAAGCGCCATCTAC,1.23 RPM ratio (pull-down/input)
4,GATGATTGTTCTCCCAGCTGATGAATTCCGGCGTTCGAGTAAACAAATTTTCCTAATCTTTCTGTTCAAGCGCCATCTAC,0.845 RPM ratio (pull-down/input)
5,GATGATTGTTCTCCCAGCTGATGAATTGGGCCAGTCGAGTAAACAAATTTTCCTAATCTTTCTGTTCAAGCGCCATCTAC,0.751 RPM ratio (pull-down/input)
6,GATGATTGTTCTCCCAGCTGATGAATTTTACAACTCGAGTAAACAAATTTTCCTAATCTTTCTGTTCAAGCGCCATCTAC,0.897 RPM ratio (pull-down/input)
7,GATGATTGTTCTCCCAGCTGATGAATTGAGAATGTCGAGTAAACAAATTTTCCTAATCTTTCTGTTCAAGCGCCATCTAC,0.853 RPM ratio (pull-down/input)
8,GATGATTGTTCTCCCAGCTGATGAATTGTCGCAGTCGAGTAAACAAATTTTCCTAATCTTTCTGTTCAAGCGCCATCTAC,1.08 RPM ratio (pull-down/input)
9,GATGATTGTTCTCCCAGCTGATGAATTGTACTATTCGAGTAAACAAATTTTCCTAATCTTTCTGTTCAAGCGCCATCTAC,1.03 RPM ratio (pull-down/input)
10,GATGATTGTTCTCCCAGCTGATGAATTCTCTATTTCGAGTAAACAAATTTTCCTAATCTTTCTGTTCAAGCGCCATCTAC,0.982 RPM ratio (pull-down/input)
11,GATGATTGTTCTCCCAGCTGATGAATTTCAAAAGTCGAGTAAACAAATTTTCCTAATCTTTCTGTTCAAGCGCCATCTAC,0.756 RPM ratio (pull-down/input)
12,GATGATTGTTCTCCCAGCTGATGAATTCTTGCAGTCGAGTAAACAAATTTTCCTAATCTTTCTGTTCAAGCGCCATCTAC,0.865 RPM ratio (pull-down/input)
13,GATGATTGTTCTCCCAGCTGATGAATTGTAGTCGTCGAGTAAACAAATTTTCCTAATCTTTCTGTTCAAGCGCCATCTAC,0.963 RPM ratio (pull-down/input)
14,GATGATTGTTCTCCCAGCTGATGAATTGATACTTTCGAGTAAACAAATTTTCCTAATCTTTCTGTTCAAGCGCCATCTAC,1.27 RPM ratio (pull-down/input)
15,GATGATTGTTCTCCCAGCTGATGAATTCGTAGGATCGAGTAAACAAATTTTCCTAATCTTTCTGTTCAAGCGCCATCTAC,0.944 RPM ratio (pull-down/input)
16,GATGATTGTTCTCCCAGCTGATGAATTCGGAGAGTCGAGTAAACAAATTTTCCTAATCTTTCTGTTCAAGCGCCATCTAC,0.747 RPM ratio (pull-down/input)

row,Sequence,binding signal
1,GATGATTGTTCTCCCAGCTGATGAATTCCCGCTTTCGAGTAAACAAATTTTCCTAATCTTTCTGTTCAAGCGCCATCTAC,0.937 RPM ratio (pull-down/input)
2,GATGATTGTTCTCCCAGCTGATGAATTTTCAGACTCGAGTAAACAAATTTTCCTAATCTTTCTGTTCAAGCGCCATCTAC,0.855 RPM ratio (pull-down/input)
3,GATGATTGTTCTCCCAGCTGATGAATTCCTGAGGTCGAGTAAACAAATTTTCCTAATCTTTCTGTTCAAGCGCCATCTAC,0.755 RPM ratio (pull-down/input)
4,GATGATTGTTCTCCCAGCTGATGAATTGCTATATTCGAGTAAACAAATTTTCCTAATCTTTCTGTTCAAGCGCCATCTAC,1.3 RPM ratio (pull-down/input)
5,GATGATTGTTCTCCCAGCTGATGAATTCGCGATATCGAGTAAACAAATTTTCCTAATCTTTCTGTTCAAGCGCCATCTAC,0.926 RPM ratio (pull-down/input)
6,GATGATTGTTCTCCCAGCTGATGAATTAAGTAGATCGAGTAAACAAATTTTCCTAATCTTTCTGTTCAAGCGCCATCTAC,0.866 RPM ratio (pull-down/input)
7,GATGATTGTTCTCCCAGCTGATGAATTCAGTCGATCGAGTAAACAAATTTTCCTAATCTTTCTGTTCAAGCGCCATCTAC,0.79 RPM ratio (pull-down/input)
8,GATGATTGTTCTCCCAGCTGATGAATTTAAAGGCTCGAGTAAACAAATTTTCCTAATCTTTCTGTTCAAGCGCCATCTAC,1.02 RPM ratio (pull-down/input)
9,GATGATTGTTCTCCCAGCTGATGAATTGCACGGCTCGAGTAAACAAATTTTCCTAATCTTTCTGTTCAAGCGCCATCTAC,1.01 RPM ratio (pull-down/input)
10,GATGATTGTTCTCCCAGCTGATGAATTTGATATGTCGAGTAAACAAATTTTCCTAATCTTTCTGTTCAAGCGCCATCTAC,1 RPM ratio (pull-down/input)
11,GATGATTGTTCTCCCAGCTGATGAATTCTTTACCTCGAGTAAACAAATTTTCCTAATCTTTCTGTTCAAGCGCCATCTAC,0.909 RPM ratio (pull-down/input)
12,GATGATTGTTCTCCCAGCTGATGAATTGAGTTTTTCGAGTAAACAAATTTTCCTAATCTTTCTGTTCAAGCGCCATCTAC,0.981 RPM ratio (pull-down/input)
13,GATGATTGTTCTCCCAGCTGATGAATTGCCTTGATCGAGTAAACAAATTTTCCTAATCTTTCTGTTCAAGCGCCATCTAC,0.985 RPM ratio (pull-down/input)
14,GATGATTGTTCTCCCAGCTGATGAATTGGCACTGTCGAGTAAACAAATTTTCCTAATCTTTCTGTTCAAGCGCCATCTAC,0.856 RPM ratio (pull-down/input)
15,GATGATTGTTCTCCCAGCTGATGAATTTTATCACTCGAGTAAACAAATTTTCCTAATCTTTCTGTTCAAGCGCCATCTAC,0.979 RPM ratio (pull-down/input)
16,GATGATTGTTCTCCCAGCTGATGAATTCTTGTACTCGAGTAAACAAATTTTCCTAATCTTTCTGTTCAAGCGCCATCTAC,0.981 RPM ratio (pull-down/input)
